Measured values published in the supplement of paper PMC3334620.
Over roughly 33,000 sequences, “E-score (-0.5 to 0.5)” has its median near -0.054; the highest 2% begin near 0.39. Some of the results follow.

Biological target: Ylr278c (UniProt Q05854)
Assay: PBM E-score (8-mer binding enrichment) (E-score (-0.5 to 0.5)); higher = stronger / more preferred TF binding; most listed sequences are background and not binding sites
Conditions: protein concentration: 200 nM; construct: GST-DNA-binding domain
Experimental: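 Universal 'all 10-mer' protein binding microarrays (Agilent AMADID 015681) probed with GST-tagged S. cerevisiae TFs (full-length or DBD) made by in vitro transcription/translation (PURExpress), about 100-200 nM. Bound TF was detected with fluorescent anti-GST. Each ungapped 8-mer (which stands for itself and its reverse complement) is scored by the PBM enrichment score (E-score), a modified Wilcoxon-Mann-Whitney statistic from -0.5 to +0.5, computed with the Universal PBM Analysis Suite. Scale: above 0.35 generally sequence-specific binding.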

| Sequence | PBM E-score |
| --- | --- |
| CACGAAAA | -0.0651 |
| GATCCCTA | -0.0683 |
| GTCGGTGA | 0.141 |
| CAAAACTA | -0.057 |
| AAGCTGCC | -0.234 |
| AATCCTCA | -0.299 |
| CGCTATCA | -0.0187 |
| GGATCGAA | 0.0293 |
| CAACCGTA | -0.319 |
| AAATAGCG | -0.0148 |
| GACGCACC | -0.125 |
| CCGAGAAC | 0.269 |
| ACGCTGCA | -0.132 |
| AGGATCCA | -0.171 |
| AAGCTCAT | -0.128 |
| CCTCACCC | 0.158 |
| GCTCTCAC | -0.0541 |
| GCAAATCA | -0.0939 |
| ATATCGTC | -0.258 |
| AACCTCTT | 0.117 |
| AACGCTAC | -0.0542 |
| AAGTCCGC | 0.46 |

| Sequence | PBM E-score |
| --- | --- |
| CTCCGCTA | 0.368 |
| GCTACCGA | -0.00941 |
| CGCCTGCC | -0.0694 |
| AGGTCCGG | 0.418 |
| ACAGAACG | -0.124 |
| CGACTCCG | 0.406 |
| TGGGCAAA | -0.0454 |
| AAATAATC | -0.0227 |
| ACGCGTTC | 0.0444 |
| AAAGCGCA | 0.0052 |
| CTAAAATA | -0.138 |
| GAGCCATC | -0.224 |
| CCACGAAA | -0.18 |
| CCCTCCCG | 0.126 |
| CATGCCAA | -0.234 |
| ATGAAAGA | -0.168 |
| AACTCCCG | 0.365 |
| TTACTCAA | 0.0257 |
| ACTCGGCC | 0.16 |
| CTTCCCCC | -0.142 |
| ATGCATAC | -0.135 |
| AGTGGTGA | 0.0846 |

| Sequence | PBM E-score |
| --- | --- |
| AGCCATAG | -0.327 |
| ACAAAACA | -0.213 |
| CCGGACGC | 0.364 |
| ATGTAGTG | -0.17 |
| GTTATAAA | 0.00657 |
| CTCACAGA | -0.231 |
| AGTTGCAG | -0.142 |
| GTTAGTAA | -0.183 |
| AAGACTTG | -0.126 |
| ACTTGATA | -0.0344 |
| CTGCGCCC | -0.142 |
| CCTTTACC | -0.105 |
| CGATTGCG | 0.234 |
| AAGTAATG | 0.029 |
| AGTTCGCC | 0.0865 |
| ATGTGGCA | -0.0966 |
| AATGCTAG | -0.151 |
| CGGACGGC | 0.313 |
| AAGCGATA | -0.18 |
| CGGAGATC | 0.479 |
| CAACTCTA | -0.0308 |
| GTCAATAA | -0.0804 |

| Sequence | PBM E-score |
| --- | --- |
| TATGATGA | -0.143 |
| ACCTTATG | -0.283 |
| CGCTACAA | -0.0146 |
| GCGGGCGA | 0.275 |
| AAGTTTTG | -0.0901 |
| CGAAACGA | -0.104 |
| CAGTCGGA | 0.357 |
| AGATCTAC | -0.0677 |
| ATAGATGC | -0.0946 |
| GACCCGTA | -0.0778 |
| CTGAGTGC | -0.133 |
| CTACTAAA | -0.0349 |
| CTTGGTTA | -0.145 |
| CCGGGCCA | 0.303 |
| GTAAAGCA | -0.0114 |
| ATAAATAC | 0.0783 |
| GCTACATA | -0.0685 |
| CCACGACC | -0.217 |
| AGCTACTC | -0.0095 |
| CACATTAC | -0.0332 |
